According to the supplement of paper PMC4967469:
IC50 is the fitted dose that halves viability relative to control wells, and lower means more sensitive; where the fit passes the top or lowest dose, that dose stands as a limit. For AUC the same curve is integrated over the 256-fold range of doses and scaled to a fraction: 1 means no effect, lower means more sensitive. For some of these results: The top dose, if marked as inferred, is not printed in the source and was worked back from the curve model. For some of these results: Drugs with an entry number were screened twice under separate entries, and the two screens often disagree.

Columns and labels:
Assay in all cases: Viability of human cancer cell lines after 72 h of drug (GDSC screen)
BX-795 = compound: O=C(NCCCNc1nc(Nc2cccc(NC(=O)N3CCCC3)c2)ncc1I)c1cccs1 [BX-795]; settings: top dose 5 µM; top dose inferred
Protocol: (§1)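 Human cancer cell lines in 384-well plates, medium with 10% serum, drug for 72 h over a 256-fold dose range (nine 2-fold or five 4-fold steps up to the top dose). Adherent lines were fixed and stained with the nucleic acid dye Syto60, suspension lines read with resazurin; signal relative to control wells, capped at 0 and 100%. One two-parameter sigmoid per drug and line, fitted in a mixed model over all curves with the slope shared within a line.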

UNC0638 = compound: COc1cc2c(NC3CCN(C(C)C)CC3)nc(C3CCCCC3)nc2cc1OCCCN1CCCC1 [UNC0638]
Protocol: as §1

Tretinoin = compound: CC1=C(/C=C/C(C)=C/C=C/C(C)=C/C(=O)O)C(C)(C)CCC1 [Tretinoin]; settings: top dose 10 µM; top dose inferred
Protocol: as §1

SB-505124 = compound: Cc1cccc(-c2[nH]c(C(C)(C)C)nc2-c2ccc3c(c2)OCO3)n1 [SB-505124]; settings: top dose 10 µM; top dose inferred
Protocol: as §1

PI-103 = compound: Oc1cccc(-c2nc(N3CCOCC3)c3oc4ncccc4c3n2)c1 [PI-103]; settings: top dose 10.24 µM
Protocol: as §1

WH-4-023 = compound: COc1ccc(N(C(=O)Oc2c(C)cccc2C)c2ccnc(Nc3ccc(N4CCN(C)CC4)cc3)n2)c(OC)c1 [WH-4-023]; settings: top dose 5.12 µM; top dose inferred
Protocol: as §1

GSK690693 = compound: CCn1c(-c2nonc2N)nc2c(C#CC(C)(C)O)ncc(OC[C@H]3CCCNC3)c21 [GSK690693]; settings: top dose 10.24 µM; top dose inferred
Protocol: as §1

[1] = top dose 20 µM, screen: GDSC drug entry 1236, top dose inferred
[2] = top dose 40 µM, screen: GDSC drug entry 245

| Cell Line | AUC (BX-795) | IC50 (BX-795) | AUC (UNC0638; [1]) | IC50 (UNC0638; [1]) | AUC (UNC0638; [2]) | IC50 (UNC0638; [2]) | AUC (Tretinoin) | IC50 (Tretinoin) | AUC (SB-505124) | IC50 (SB-505124) | AUC (PI-103) | IC50 (PI-103) | AUC (WH-4-023) | IC50 (WH-4-023) | AUC (GSK690693) | IC50 (GSK690693) |
| --- | --- | --- | --- | --- | --- | --- | --- | --- | --- | --- | --- | --- | --- | --- | --- | --- |
| CMK (acute myeloid leukaemia, suspension) | 0.858 | 3.15 µM | 0.821 | 9.34 µM | 0.602 | 4.54 µM | 0.95 | > 10 µM | 0.973 | > 10 µM | 0.307 | 0.203 µM | 0.989 | > 5.12 µM | 0.962 | > 10.2 µM |
| COLO-320-HSR (large intestine, suspension) | 0.923 | > 5 µM | 0.847 | 11.9 µM | 0.893 | 36.7 µM | 0.99 | > 10 µM | 0.988 | > 10 µM | 0.74 | 2.77 µM | 0.982 | > 5.12 µM | 0.988 | > 10.2 µM |
| COLO-668 (small cell lung carcinoma, adherent) | 0.92 | > 5 µM | 0.82 | 11.4 µM | 0.674 | 7.64 µM | 0.987 | > 10 µM | 0.982 | > 10 µM | 0.603 | 1.23 µM | 0.981 | > 5.12 µM | 0.978 | > 10.2 µM |
| COLO-684 (endometrium, suspension) | 0.923 | > 5 µM | 0.817 | 13 µM | 0.696 | 9.61 µM | 0.969 | > 10 µM | 0.962 | > 10 µM | 0.125 | < 0.04 µM | 0.971 | > 5.12 µM | 0.427 | 0.393 µM |
| COLO-800 (melanoma, adherent) | 0.782 | 2.03 µM | 0.706 | 4.65 µM | 0.876 | 37.7 µM | 0.961 | > 10 µM | 0.963 | > 10 µM | 0.831 | 6.22 µM | 0.988 | > 5.12 µM | 0.943 | > 10.2 µM |
| COLO-824 (breast, adherent) | 0.915 | > 5 µM | 0.813 | 11 µM | 0.685 | 8.31 µM | 0.975 | > 10 µM | 0.977 | > 10 µM | 0.775 | 4.13 µM | 0.986 | > 5.12 µM | 0.982 | > 10.2 µM |
| COR-L88 (small cell lung carcinoma, adherent) | 0.934 | > 5 µM | 0.85 | 19.8 µM | 0.64 | 6.56 µM | 0.983 | > 10 µM | 0.977 | > 10 µM | 0.908 | > 10.2 µM | 0.928 | > 5.12 µM | 0.984 | > 10.2 µM |
| COR-L95 (small cell lung carcinoma, adherent) | 0.987 | > 5 µM | 0.906 | > 20 µM | 0.603 | 5.03 µM | 0.987 | > 10 µM | 0.943 | > 10 µM | 0.711 | 2.8 µM | 0.943 | > 5.12 µM | 0.897 | > 10.2 µM |
| COR-L279 (small cell lung carcinoma, suspension) | 0.921 | > 5 µM | 0.82 | 9.88 µM | 0.569 | 3.77 µM | 0.984 | > 10 µM | 0.972 | > 10 µM | 0.165 | 0.0717 µM | 0.986 | > 5.12 µM | 0.833 | 5.64 µM |
| CP66-MEL (melanoma, adherent) | 0.98 | > 5 µM | 0.91 | > 20 µM | 0.983 | > 40 µM | 0.986 | > 10 µM | 0.983 | > 10 µM | 0.841 | 8.64 µM | 0.834 | 4.02 µM | 0.986 | > 10.2 µM |
| CPC-N (small cell lung carcinoma, suspension) | 0.937 | > 5 µM | 0.752 | 7.19 µM | 0.557 | 3.62 µM | 0.978 | > 10 µM | 0.889 | > 10 µM | 0.591 | 1.17 µM | 0.935 | > 5.12 µM | 0.88 | > 10.2 µM |
| CTB-1 (B-cell lymphoma, suspension) | 0.846 | > 5 µM | 0.788 | 12.5 µM | 0.565 | 4.01 µM | 0.904 | > 10 µM | 0.926 | > 10 µM | 0.303 | 0.145 µM | 0.842 | > 5.12 µM | 0.646 | 1.89 µM |
| CTV-1 (acute myeloid leukaemia, suspension) | 0.947 | > 5 µM | 0.819 | 8.62 µM | 0.701 | 8.03 µM | 0.956 | > 10 µM | 0.981 | > 10 µM | 0.59 | 1.07 µM | 0.014 | < 0.02 µM | 0.928 | > 10.2 µM |
| CW-2 (large intestine, adherent) | 0.975 | > 5 µM | 0.987 | > 20 µM | 0.905 | > 40 µM | 0.985 | > 10 µM | 0.988 | > 10 µM | 0.925 | > 10.2 µM | 0.983 | > 5.12 µM | 0.942 | > 10.2 µM |
| Calu-6 (lung adenocarcinoma, adherent) | 0.975 | > 5 µM | 0.982 | > 20 µM | 0.821 | 27.7 µM | 0.914 | > 10 µM | 0.959 | > 10 µM | 0.781 | 4.9 µM | 0.951 | > 5.12 µM | 0.984 | > 10.2 µM |
| D-247MG (glioma, adherent) | 0.838 | > 5 µM | 0.81 | 15.6 µM | 0.767 | 20.4 µM | 0.947 | > 10 µM | 0.977 | > 10 µM | 0.117 | < 0.04 µM | 0.833 | > 5.12 µM | 0.972 | > 10.2 µM |
